Measured values as given in the RNAGym collection of RNA variant scans (doi:10.1073/pnas.2313332121).
This sample is rich in variants without activity.

B1: TPR 5TU (parent)
chain: GGAUCUUCUCGAUCUAACAAAAAAGACAAAUCUGCCACAAAGCUUGAGAGCAUCUUCGGAUGCAGAGGCGGCAGCCUUCGGUGGCGCGAUAGCGCCAACGUUCUCAACUAUGACACGCAAAACGCGUGCUCCGUUGAAUGGAGUUUAUCAUG

Variants of: B1
Assay: polymerase ribozyme fitness, log enrichment relative to wild type (log ratio); higher = more active; in vitro selection for triplet polymerase activity
Outline: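 Libraries of mutants in each subunit of a heterodimeric triplet polymerase ribozyme were generated by PCR and transcribed. In triplicate, each went through one in vitro selection round: annealing with biotinylated primer, partner subunit and triplets; frozen incubation at −7 °C; gel excision of extended constructs; streptavidin-bead capture; RT-PCR. Fitness, taken from Illumina sequencing of input and output libraries, is the logarithm of a genotype's enrichment over wild-type enrichment, averaged across replicates with inverse-variance weights. The logarithm is base 2, and genotypes needed ≥10 input reads and ≥1 read per output to be kept.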

| Variant | polymerase ribozyme fitness (log ratio) |
| --- | --- |
| GGAUCUUCUCGAUCUAACAAAAAAGACAAAUCUGCCACAAAGCUUGAGAGCAUCUUCGGAUGCAGAGGCGGCAGCCUUCGGUGGCGCGAUAGCUCCAACGUUCUCAACUAUGAGAUGCAAAACGCGUGCUCCGUUGAAUGGAGUUUAUCAUG | ≤ -4.2 |
| GGAUCUUCUCGAUCUAACAAAAAAGACAAAUCUGCCACAAAGCUUGAGAGCAUCUUCGGAUGCAGAGGCGGCAGCCUUCGGUGGCGCGAUAGCUCCAACGUUCUCAACUAUGACACGCAAAACGCGUGCUCCGUUGAAUGGAUUUUAUCAUG | -3.64 |
| GGAUCUUCUCGAUCUAACAAAAAAGACAAAUCUGCCACAAAGCUUGAGAGCAUCUUCGGAUGCAGAGGCGGCAGCCUUCGGUGGCGCGAUAGCUCCAACGGUCUCAACUAUGACACGCAUAACGCGUGCUCCGUUGAAUGGUGUUUAUCAUG | -2.08 |
| GGAUCUUCUCGAUCUAACAAAAAAGACAAAUCUGCCACAAAGCUUGAGAGCAUCUUCGGAUGCAGAGGCGGCAGCCUUCGGUGGCGCGAUAGCGACAGCGUUCUCAACUAUGACACGCAAAACGCGUGCUCCGUUGAAUGGAGUUUAUCAUG | 0.372 |
| GGAUCUUCUCGAUCUAACAAAAAAGACAAAUCUGCCACAAAGCUUGAGAGCAUCUUCGGAUGCAGAGGCGGCAGCCUUCGGUGGCGCGAUAGCGAAAACGUUCUCAACUAUGACAUGCAAAACGCGUGCUCCGUUGAAUGGAGUUUAUCAUG | -0.649 |
| GGAUCUUCUCGAUCUAACAAAAAAGACAAAUCUGCCACAAAGCUUGAGAGCAUCUUCGGAUGCAGAGGCGGCAGCCUUCGGUGGCGCGAUAGCGACAACGUUCUCAACUAUGACACGCAAAACGCGUGCUCCGUUGAAUAGAGUUUAUCAUG | -2.71 |
| GGAUCUUCUCGAUCUAACAAAAAAGACAAAUCUGCCACAAAGCUUGAGAGCAUCUUCGGAUGCAGAGGCGGCAGCCUUCGGUGGCGCGAUAGCGGUAACGUUCUCAACUAUGACACGCAAAACGCGUGCUCCGUUGAAUGGAGUUUAUCAGG | ≤ -4.2 |
| GGAUCUUCUCGAUCUAACAAAAAAGACAAAUCUGCCACAAAGCUUGAGAGCAUCUUCGGAUGCAGAGGCGGCAGCCUUCGGUGGCGCGAUAGCGUCAACGUUCUCAACUAUGACACGCAAAACGCGUGCUCCGUUGAAUGGAGUUUUUCAUG | 0.673 |
| GGAUCUUCUCGAUCUAACAAAAAAGACAAAUCUGCCACAAAGCUUGAGAGCAUCUUCGGAUGCAGAGGCGGCAGCCUUCGGUGGCGCGAUAGCGUAAAUGUUCUCAAUUAUGACACGCAAAACGCGUGCUCCGUUGAAUGGAGUUUAUCAUG | -4.11 |
| GGAUCUUCUCGAUCUAACAAAAAAGACAAAUCUGCCACAAAGCUUGAGAGCAUCUUCGGAUGCAGAGGCGGCAGCCUUCGGUGGCGCGAUAGCGUGAACGUUCUCAACUAUGACACGCAAAACGCGUGCUCCGUGGAAUGGAGGUUCUCAUG | -4.2 |
| GGAUCUUCUCGAUCUAACAAAAAAGACAAAUCUGCCACAAAGCUUGAGAGCAUCUUCGGAUGCAGAGGCGGCAGCCUUCGGUGGCGCGAUAGCGUCAACUUUCGCAACUAUGAUACGCAAAACGCGUGCUCCGUUGAAUGCAGUUUAUCCUG | ≤ -4.2 |
| GGAUCUUCUCGAUCUAACAAAAAAGACAAAUCUGCCACAAAGCUUGAGAGCAUCUUCGGAUGCAGAGGCGGCAGCCUUCGGUGGCGCGAUAGCGUCAACGUUCUCAACUAUGACACGCAAAACGCGUGCUCCGUUGAAUGAAGUUUAUCAUG | 0.432 |
| GGAUCUUCUCGAUCUAACAAAAAAGACAAAUCUGCCACAAAGCUUGAGAGCAUCUUCGGAUGCAGAGGCGGCAGCCUUCGGUGGCGCGAUAGCGUCAACGUCCUCAACUAUGACACGCAAAACGUGUGCUCCGUUGAAUGGAGUAUAUUAUG | ≤ -4.2 |
| GGAUCUUCUCGAUCUAACAAAAAAGACAAAUCUGCCACAAAGCUUGAGAGCAUCUUCGGAUGCAGAGGCGGCAGCCUUCGGUGGCGCGAUAGCGUCAACGUGCUCAACUAUGACACGCAAAACGCGUGCUCCGUUGAAUGGAGUUUAUCAUG | -1.19 |
| GGAUCUUCUCGAUCUAACAAAAAAGACAAAUCUGCCACAAAGCUUGAGAGCAUCUUCGGAUGCAGAGGCGGCAGCCUUCGGUGGCGCGAUAGCGCAAACGUUCUCAACUAUGACACGCAUAACGCGUGCUCCGUUGAAUUGAGUUUAUCAUG | -3.09 |
| GGAUCUUCUCGAUCUAACAAAAAAGACAAAUCUGCCACAAAGCUUGAGAGCAUCUUCGGAUGCAGAGGCGGCAGCCUUCGGUGGCGCGAUAGCGCAAAGGUUCUCAACUAUGACUCGCAAAACGCGUGCUCCGUUGAAAGGAGUUUAUCAUG | ≤ -4.2 |
| GGAUCUUCUCGAUCUAACAAAAAAGACAAAUCUGCCACAAAGCUUGAGAGCAUCUUCGGAUGCAGAGGCGGCAGCCUUCGGUGGCGCGAUAGCGCAAACGUUCUCAAAUAUGACACGCAAAACGCGUGCUCCGUUGAAUGCAGUUUAUCAUG | ≤ -4.2 |
| GGAUCUUCUCGAUCUAACAAAAAAGACAAAUCUGCCACAAAGCUUGAGAGCAUCUUCGGAUGCAGAGGCGGCAGCCUUCGGUGGCGCGAUAGCGCAAACGUUCUCAACUAUGACACGCAAAACGAGUGCUCCGUUGAAUGGAGUUUAUCAUG | -0.718 |
| GGAUCUUCUCGAUCUAACAAAAAAGACAAAUCUGCCACAAAGCUUGAGAGCAUCUUCGGAUGCAGAGGCGGCAGCCUUCGGUGGCGCGAUAGCGCAAACGUUCUCAACUAUGACACGCAAAACGCGUGCUCGGUUGAAUGGAGUUUAUCAUG | -3.72 |

| Variant | polymerase ribozyme fitness (log ratio) |
| --- | --- |
| GGAUCUUCUCGAUCUAACAAAAAAGACAAAUCUGCCACAAAGCUUGAGAGCAUCUUCGGAUGCAGAGGCGGCAGCCUUCGGUGGCGCGAUAGCGCAAACGUUCUCAACUAUGACACGCAAAACGCAUGCUCCGUUGAAGGGAGUUUAUCACG | ≤ -4.2 |
| GGAUCUUCUCGAUCUAACAAAAAAGACAAAUCUGCCACAAAGCUUGAGAGCAUCUUCGGAUGCAGAGGCGGCAGCCUUCGGUGGCGCGAUAGCGCAAACGUUCUCAACUAUGACACGCAAAACGCGUGCUCCGUUGAAUGGAGUUUAUCAUU | -2.51 |
| GGAUCUUCUCGAUCUAACAAAAAAGACAAAUCUGCCACAAAGCUUGAGAGCAUCUUCGGAUGCAGAGGCGGCAGCCUUCGGUGGCGCGAUAGCGCAAACGCUCUCAACAAUGACACGAAAAACGCGUGCUCCGUUGAAUGGAGUUUAUCAUG | -1.54 |
| GGAUCUUCUCGAUCUAACAAAAAAGACAAAUCUGCCACAAAGCUUGAGAGCAUCUUCGGAUGCAGAGGCGGCAGCCUUCGGUGGCGCGAUAGCGCAAACGUUCUCAACUAUGACACGCAAAACGCGAGCUCCGUUGAAUGGAGUUUAUCAUG | -3.79 |
| GGAUCUUCUCGAUCUAACAAAAAAGACAAAUCUGCCACAAAGCUUGAGAGCAUCUUCGGAUGCAGAGGCGGCAGCCUUCGGUGGCGCGAUAGCGCAAACGUUCUCAACUAUGACACGCAAAACGCGCGCUCCGUUGAAUGGCGUUUAUCAUG | ≤ -4.2 |
| GGAUCUUCUCGAUCUAACAAAAAAGACAAAUCUGCCACAAAGCUUGAGAGCAUCUUCGGAUGCAGAGGCGGCAGCCUUCGGUGGCGCGAUAGCGCGCACGUUCUCAACUAUGACACGCAAAACGGGUGUUCCGUUGAAUGGAGUUUAUCAUG | ≤ -4.2 |
| GGAUCUUCUCGAUCUAACAAAAAAGACAAAUCUGCCACAAAGCUUGAGAGCAUCUUCGGAUGCAGAGGCGGCAGCCUUCGGUGGCGCGAUAGCGCGAUCGUUGUCAACUAUGCCACGCAAAACGCGUGCUCCGUUGAAUGGAAUUUAUCAUG | ≤ -4.2 |
| GGAUCUUCUCGAUCUAACAAAAAAGACAAAUCUGCCACAAAGCUUGAGAGCAUCUUCGGAUGCAGAGGCGGCAGCCUUCGGUGGCGCGAUAGCGCGAACGUUCUCAGCUAUGACACGCAAAACGCGUGCUCCGUUGAAUGGAGUUUAUCAUG | ≤ -4.2 |
| GGAUCUUCUCGAUCUAACAAAAAAGACAAAUCUGCCACAAAGCUUGAGAGCAUCUUCGGAUGCAGAGGCGGCAGCCUUCGGUGGCGCGAUAGCGCGAACGUUCUCAACUAUGACACGCUAAACGCGUGCUCCGUUGAAUGGAGUUUAUCAUG | -2.52 |
| GGAUCUUCUCGAUCUAACAAAAAAGACAAAUCUGCCACAAAGCUUGAGAGCAUCUUCGGAUGCAGAGGCGGCAGCCUUCGGUGGCGCGAUAGCGCGAACGUUCUCAACUAUGACACGCAAAGCGCGUGCUCCGUUGAAGGGAGUUUAUCAUG | 0.0535 |
| GGAUCUUCUCGAUCUAACAAAAAAGACAAAUCUGCCACAAAGCUUGAGAGCAUCUUCGGAUGCAGAGGCGGCAGCCUUCGGUGGCGCGAUAGCGCGAACGUUCUCAACUAUGACACGCAAAACGCGUGCUCCGUUGAAUGGCGUUUAUCAUG | -1.82 |
| GGAUCUUCUCGAUCUAACAAAAAAGACAAAUCUGCCACAAAGCUUGAGAGCAUCUUCGGAUGCAGAGGCGGCAGCCUUCGGUGGCGCGAUAGCGCGAACGUUUUCAACUAUGACACGCAAAACGCGUGCUCCGUUGAAUGGAGUUUAUCAUG | -0.445 |
| GGAUCUUCUCGAUCUAACAAAAAAGACAAAUCUGCCACAAAGCUUGAGAGCAUCUUCGGAUGCAGAGGCGGCAGCCUUCGGUGGCGCGAUAGCGCGAACGUUCUCAACUAUGACACGCAAAACGGGUGCGCAGUUGAAUGGAGUUUAUCAUG | ≤ -4.2 |
| GGAUCUUCUCGAUCUAACAAAAAAGACAAAUCUGCCACAAAGCUUGAGAGCAUCUUCGGAUGCAGAGGCGGCAGCCUUCGGUGGCGCGAUAGCGCGAACGUGCUCAACUAUGACACGCAAAACGCGUGCUCCGUUGAAUGGAGUUUAUCAUG | -3.26 |
| GGAUCUUCUCGAUCUAACAAAAAAGACAAAUCUGCCACAAAGCUUGAGAGCAUCUUCGGAUGCAGAGGCGGCAGCCUUCGGUGGCGCGAUAGCGCGAACGUUCUCAACGAUGACACGCAAAACCCGUGCUCCGUUGAAUGGAGUUUAUCAUG | -2.62 |
| GGAUCUUCUCGAUCUAACAAAAAAGACAAAUCUGCCACAAAGCUUGAGAGCAUCUUCGGAUGCAGAGGCGGCAGCCUUCGGUGGCGCGAUAGCGCUAGCGUUCUCAACUAAGACACGCAAAACGCGUGCUCCGUUGAAUGGAGUUUAUCAUA | ≤ -4.2 |
| GGAUCUUCUCGAUCUAACAAAAAAGACAAAUCUGCCACAAAGCUUGAGAGCAUCUUCGGAUGCAGAGGCGGCAGCCUUCGGUGGCGCGAUAGCGCUAACGUUCUCUCCUAUGACACGCAAAACGCGUGCUCCGUUGAAUGGAGUUUAUCUUG | ≤ -4.2 |
| GGAUCUUCUCGAUCUAACAAAAAAGACAAAUCUGCCACAAAGCUUGAGAGCAUCUUCGGAUGCAGAGGCGGCAGCCUUCGGUGGCGCGAUAGCGCUAACGUUCUCAACUAUGGCACGCAAAACGCGUGCUCCGUUCAAUGGAGUUUAUCAUG | -3.93 |
| GGAUCUUCUCGAUCUAACAAAAAAGACAAAUCUGCCACAAAGCUUGAGAGCAUCUUCGGAUGCAGAGGCGGCAGCCUUCGGUGGCGCGAUAGCGCUAACGUUCUCAACUAUGACACGCAAAACGCGUGCUCCGUUGAAUGGGGUUUAUCAUG | -1.18 |
